Assay results published in PMC4336329 (PLoS ONE, 2015).
Out of some 310,000 compounds screened, about 14,000 (4.5%) showed an effect of 50% or more. The effect is printed as a negative number. The list shows a part of the results.

Molecular target: human ether-à-go-go-related gene (hERG) potassium channel (human, UniProt Q12809)
Experiment: primary screen, population patch clamp on CHO cells stably expressing hERG
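Note: peak tail current of the secondary pulse compared with the same well before compound.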

human ether-à-go-go-related gene (hERG) potassium channel, sequence (Q12809 whole entry, looked up): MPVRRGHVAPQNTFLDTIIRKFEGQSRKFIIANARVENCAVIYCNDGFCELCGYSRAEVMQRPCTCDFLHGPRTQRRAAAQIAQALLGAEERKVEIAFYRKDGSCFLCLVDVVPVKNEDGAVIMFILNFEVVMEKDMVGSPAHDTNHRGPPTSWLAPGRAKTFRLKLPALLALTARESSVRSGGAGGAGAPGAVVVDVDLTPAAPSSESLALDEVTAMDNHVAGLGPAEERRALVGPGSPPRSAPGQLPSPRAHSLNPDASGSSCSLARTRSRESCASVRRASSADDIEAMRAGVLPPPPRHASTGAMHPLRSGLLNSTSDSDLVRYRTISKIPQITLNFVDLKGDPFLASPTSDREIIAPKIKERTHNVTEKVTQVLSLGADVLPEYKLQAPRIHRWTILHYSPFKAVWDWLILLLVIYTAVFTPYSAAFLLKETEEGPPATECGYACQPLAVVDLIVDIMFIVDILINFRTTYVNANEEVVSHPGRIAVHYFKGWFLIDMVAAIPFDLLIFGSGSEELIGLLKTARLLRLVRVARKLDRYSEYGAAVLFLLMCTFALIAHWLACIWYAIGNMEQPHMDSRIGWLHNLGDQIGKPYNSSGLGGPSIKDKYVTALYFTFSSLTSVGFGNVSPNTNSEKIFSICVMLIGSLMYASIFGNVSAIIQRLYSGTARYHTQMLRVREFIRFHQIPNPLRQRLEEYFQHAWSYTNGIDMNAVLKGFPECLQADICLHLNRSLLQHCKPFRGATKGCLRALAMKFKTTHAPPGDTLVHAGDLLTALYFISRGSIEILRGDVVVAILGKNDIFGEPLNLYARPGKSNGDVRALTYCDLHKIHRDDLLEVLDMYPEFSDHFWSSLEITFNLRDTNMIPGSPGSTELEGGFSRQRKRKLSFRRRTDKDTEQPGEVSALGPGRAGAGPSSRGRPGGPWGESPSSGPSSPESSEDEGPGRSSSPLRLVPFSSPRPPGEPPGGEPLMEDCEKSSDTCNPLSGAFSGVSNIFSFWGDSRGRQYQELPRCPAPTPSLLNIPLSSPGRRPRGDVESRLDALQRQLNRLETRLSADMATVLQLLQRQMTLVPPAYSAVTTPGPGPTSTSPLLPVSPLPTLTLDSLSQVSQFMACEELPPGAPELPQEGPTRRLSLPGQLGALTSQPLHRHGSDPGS

Compound | hERG current change (%, negative = inhibition) at 10uM [%]
O=C(NCCS(=O)(=O)N1CCCC1)c1ccccc1 | 14.5
COC(=O)c1nnn(-c2cccc(Cl)c2)c1C(=O)OC | 8.51
O=C(O)c1ccc(N/N=C2/CCCc3ccccc32)cc1.O=S(=O)(O)O | 0.56
COc1ccc(/C=C/C(=O)c2ccc(OC)cc2O)cc1 | 9.92
COc1ccc(/C=N/NC(=O)Cn2c(Cc3ccc(OC)c(OC)c3)nc3ccccc32)cc1 | -10.2
CCOC(=O)N1CCC(N2C(=O)c3ccccc3C2Nc2c(C)cccc2C)CC1 (stereo not shown) | -75.1
CCC(Oc1ccccc1)C(=O)OCC(=O)Nc1sccc1C(N)=O (stereo not shown) | -12.8
Cc1c(-c2nc(-c3cccnc3)no2)cccc1[N+](=O)[O-] | 41.1
O=C(Cc1ccccc1)Nc1ccc(C(=O)O)cc1 | -20.6
C=CCn1c(O)c(C(C)=NCC2CCCO2)c(=O)[nH]c1=O (stereo not shown) | -6.3
O=C(C1CCC(=O)N1Cc1ccccc1Cl)N1CCC2(CC1)OCCO2 (stereo not shown) | -29.7
Cc1ccc(COc2cccc3c2CCN(Cc2ccc(F)cc2)C3=O)cc1 | 6.8
O=C(Nc1ccc2c(c1)OCO2)C1CCN(Cc2cnn(-c3ccccc3)c2-n2cccc2)CC1 | -32.3
O=C(NC(c1ccccc1)c1ccccc1)C1(c2cccs2)CCOCC1 | 16.7
COc1ccccc1Nc1ncnc2ccc(C)cc12 | 5.54
CCn1c(=O)c2c(n3c(=S)[nH]nc13)-c1ccccc1CC21CCCCC1 | -27.4
CN(CC(=O)OCC(N)=O)S(=O)(=O)c1ccc(Cl)cc1 | 33.6
COc1cc(C2NCCc3c2[nH]c2ccccc32)ccc1OC(C)C.Cl (stereo not shown) | -23.3
O=C(/C=C/c1cn(CC(O)CN2CCCCC2)c2ccccc12)c1cccs1 (stereo not shown) | -54.4
CN(C(=O)c1ccccc1Cl)c1ccccc1C(=O)NCCc1ccccc1 | -8.14

Compound | hERG current change (%, negative = inhibition) at 10uM [%]
COc1cccc(OC)c1C(=O)OCCCOC(=O)c1c(OC)cccc1OC | 10.9
Oc1c(Br)cc(Br)cc1C=NCc1ccc(F)cc1 | 5.63
Cc1n[nH]c(=O)c2c(NC(=O)COC(=O)Cc3ccc(Cl)cc3Cl)oc(C)c12 | -34.3
O=C(COc1cccc2ccccc12)N/N=C/C=C/c1ccccc1 | 0.837
COc1ccc(NC(=O)CSc2ccccc2)c(OC)c1 | 2.29
COCCNC(=O)C1CCCN(S(=O)(=O)c2cccc3nsnc23)C1 (stereo not shown) | 25.2
O=c1[nH]c(=O)n(CCC2=CCCCC2)c(O)c1C=NC1CCN(Cc2ccccc2)CC1 | -58.6
CCNC(=O)NC(=O)C(C)OC(=O)c1cccn1C (stereo not shown) | 16
CCOC(=O)c1c(NC(=S)NCc2ccccc2)sc2c1CCN(C(=O)OCC)C2 | 32.8
Cn1nc(-c2ccc(C(=O)O)cc2)c2ccccc2c1=O | 11.6
Cc1ccc(NCCC(=O)c2ccccc2)cc1Cl | 3.32
CCN(c1ccccc1)S(=O)(=O)c1ccc(OC)c(NC(=O)Cn2cnc3c2c(=O)n(C)c(=O)n3C)c1 | -66
COc1ccc(NC(=O)CSc2nnc(C)n2Cc2ccccc2)cc1 | 3.14
C/C(=N\NC(=O)c1cc(-c2ccc(Br)s2)[nH]n1)c1ccncc1 | 11.1
Cc1ccc(S(N)(=O)=O)cc1NC(=O)/C=C/c1ccc2c(c1)OCO2 | 17
CCOC(=O)c1cnc2ccc(Cl)cc2c1Nc1ccc(S(=O)(=O)Nc2ncccn2)cc1 | -23.1
O=C(O)C1CCC(=O)N1C1c2ccccc2Oc2ccccc21 (stereo not shown) | 0.874
CN(NC(=O)COc1ccccc1)c1ccccc1 | 4.06
CCN1CCC(NCC2CCCCC2)CC1 | 14.5
CC(C)Sc1nc2ccccc2n1CC(N)=O | 8.26

Compound | hERG current change (%, negative = inhibition) at 10uM [%]
COc1ccccc1C(=O)NNC(=O)C12CC3CC(CC(C3)C1)C2 | 14.9
Clc1nc(NCCN2CCOCC2)nc(NCc2ccccc2)n1 | -8.87
Cc1ccnc(N2C(=O)c3ccccc3C2Nc2ccccc2Cl)c1 (stereo not shown) | 13.2
Cc1ccccc1NC(=S)c1ccc2ccccc2n1 | 21.2
COc1ccc(OCCCNCCc2ccccc2)cc1.O=C(O)C(=O)O | -57
COc1ccc(-c2nn(CCC#N)cc2C(=O)Nc2ccccc2Cl)cc1 | 4.18
Cn1cnnc1SCc1ccc(C(=O)N=Nc2c(O)n(Cc3ccc(Cl)cc3)c3ccccc23)cc1 | 0.99
Cc1ccc(S(=O)(=O)NC(C)C(=O)NC(C)c2cccs2)cc1 (stereo not shown) | 13.4
N/C(=N/OC(=O)c1ccccc1Cl)c1nonc1N | -18.9
CCC(C)n1c(SCc2ccc([N+](=O)[O-])cc2)nc2ccsc2c1=O (stereo not shown) | -11.6
Cc1ccccc1-c1nnc(SCC#N)o1 | 6.73
Cc1ccccc1N1C(=O)C(Cl)=C(N2CCOCC2)C1=O | 20.7
COc1ccc(OC)c(CCNC(=O)CN2C(=O)COc3ccc(S(=O)(=O)N4CCOCC4)cc32)c1 | -5.46
COC(=O)C1=C(c2ccc(F)cc2F)C[C@@H]2CC[C@H]1N2C(=O)NC1CCCCC1 | 2.47
Clc1ccc(OCc2nc(-c3ccc(Br)o3)no2)cc1 | -9.64
Cc1cc(-c2[nH]nc3c2C(c2ccsc2)C(C#N)=C(N)O3)c(C)s1 (stereo not shown) | -2.19
CCOc1ccc(Cn2nnc(C(=O)NCc3ccc(OC)cc3)c2N)cc1 | 6.41
C#CCOCCOCCOCCNc1nc(N2CCN(C(=O)[C@H](Cc3ccc(O)cc3)n3cc([C@@H](N)C(C)CC)nn3)CC2)nc(N2CCN(C(=O)[C@H](Cc3cc4ccccc4[nH]3)n3cc([C@@H](N)CC(C)C)nn3)CC2)n1.Cl (stereo partly shown) | 0.573
